Laboratory results as given in PubChem BioAssay (NCATS).
Several values for one entry are separate records, joined by “and”; a condition that tells them apart may be missing. Equal values may be shown once. For some assays here: A note “side channel” means that the fit belongs to a control or component signal, not to the main read-out. Activity calls are given as the source filed them. Unless noted, calls follow the shape of the dose curve; as a rule, active = well fitted curve in the direction sought with a large enough effect; inconclusive = small, poorly fitted or top-dose-only effect, or another doubt; inactive = no such curve, though single readings can be large; an effect the other way counts as inactive or inconclusive.

Experiments:
[1] = Cell Viability - Hek293 (AID 427;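 active = compounds whose dose-response curve shows a full or clear partial loss of cell viability, called from curve shape rather than a numeric limit; inconclusive = weak partial curves or an effect only at the top dose; inactive = no dose-dependent loss of viability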;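 also: cells exposed to compound for 40 hours at 37 °C before reading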); conditions: qHTS
How it was run: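 HEK293 cells in complete medium were exposed to compound for 40 hr at 37 °C, then cellular ATP was read by CellTiter-Glo luminescence. Data were normalized to DMSO (basal) and 100 uM tamoxifen (100% inhibition), and AC50 came from Hill fits.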

[2] = target: Estrogen receptor (Homo sapiens) (UniProt P03372); test: qHTS assay for small molecule antagonists of estrogen receptor alpha signaling (AID 588513; active = well fitted curve in the direction sought with a large enough effect in the signal ratio, with a control signal flat, not every such curve was filed as active; inconclusive = small, poorly fitted or top-dose-only effect, or effect the other way, or a change in a side signal; inactive = no such curve, though single readings can be large or run the other way; the % refers to the signal ratio; as to activity, negative = inhibition: % is scaled to controls: 0 for no effect and ±100 for the full control effect); conditions: ER-alpha-UAS-bla HEK293, beta-lactamase ratio, antagonist mode; activity, negative = inhibition: at 76.9 µM (top of the series)
How it was run: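 Beta-lactamase reporter, antagonist mode, HEK 293 GripTite cells; 0.5nM E2 stimulus, 18 h, 37 C; CCF4 dye 2 h RT; fluorescence. IC50 and efficacy from Hill fits, normalized to E2 and DMSO.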

[3] = target: Peroxisome proliferator-activated receptor gamma (Homo sapiens) (UniProt P37231); test: qHTS assay for small molecule antagonists of peroxisome proliferator-activated receptor gamma signaling (AID 588537; active = well fitted inhibition curve with a large enough effect in the signal ratio, with a control signal flat, not every such curve was filed as active; inconclusive = small, poorly fitted or top-dose-only effect, or effect the other way, or a change in a side signal; the % refers to the signal ratio;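 also: reporter cells co-stimulated with 50 nM rosiglitazone agonist during compound treatment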; as to activity, negative = inhibition: % of control where 0% means no effect); conditions: HEK293 PPARg-UAS-bla, beta-lactamase ratio, antagonist mode; activity, negative = inhibition: at 76.8 µM (top of the series)
How it was run: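 Step one: plate 3000 HEK293 UAS-bla cells per well in medium with 1% stripped serum and hold 6-6.5 h at 37 C. Step two: add compound and 50 nM agonist for 16 h. Step three: CCF4 loading, fluorescence read.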

[4] = target: Retinoic acid receptor RXR-alpha (Homo sapiens) (UniProt P19793); test: qHTS assay for small molecule agonists of retinoid X receptor alpha signaling (AID 588544; calls by dose curve;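 as to activation: 0% = DMSO basal wells and 100% = reference agonist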); conditions: HEK293T RXRa-UAS-bla, beta-lactamase reporter, 18 h; activation: at 76.7 µM (top of the series)
[5] = qHTS assay to identify small molecules that stimulate interleukin-8 (IL-8) secretion (AID 651758; active = well fitted activation curve with a large enough effect in the signal ratio; inconclusive = small, poorly fitted or top-dose-only effect, or effect the other way, or a change in a side signal; the % refers to the signal ratio; as to activation: 0% is about no effect); conditions: HTRF ratio (665/615); activation: at 92.2 µM (top of the series)
How it was run: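 THP-1 cells (2000/well) exposed to compound 16 h at 37 C; secreted IL-8 then detected by HTRF with cryptate- and XL665-labelled anti-IL-8 antibody pair after 1-3 h at room temperature.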

[6] = MultiTox-Fluor Cytotoxicity Assay - LYMP1-002 - Dead Cells (AID 960); conditions: LYMP1-002 lymphoblastoid cells, dead-cell protease fluorescence; cytotoxicity (dead cells): at 46.1 µM (top of the series); also: nearly all actives have a fitted effect of over 60% in size
How it was run: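 Human lymphoblastoid cells (LYMP1-002), 2500/well in complete medium, were exposed to compounds for 16 hr at 37 C. Dead-cell protease activity was read as bis-AAF-R110 fluorescence (Ex/Em 485/520), normalized to DMSO and 15 uM tetraoctylammonium bromide; AC50 from Hill fits.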

[7] = Cell Viability - LYMP2-005 (AID 967); conditions: LYMP2-005 lymphoblastoid cell viability; series mostly up to 92.2 µM
How it was run: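 Steps: seed 2500 LYMP2-005 cells/well, incubate 5 h at 37 C, add compound, incubate 24 h at 37 C, add CellTiter-Glo, wait 30 min at RT, read luminescence. Concentration-response data fitted to Hill equation for AC50.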

[8] = target: Peroxisome proliferator-activated receptor delta (Homo sapiens) (UniProt Q03181); test: qHTS assay for small molecule antagonists of peroxisome proliferator-activated receptor delta signaling (AID 588535; active = well fitted inhibition curve with a large enough effect in the signal ratio, with a control signal flat, not every such curve was filed as active; inconclusive = small, poorly fitted or top-dose-only effect, or effect the other way, or a change in a side signal; inactive = no such curve, though single readings can be large or run the other way; the % refers to the signal ratio); conditions: HEK293T PPARd-UAS-bla, beta-lactamase FRET ratio, 18 h; activity change, negative = inhibition: at 76.7 µM (top of the series)
How it was run: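 Cells were seeded at 4000 per well in assay medium containing 2% charcoal/dextran FBS and held 5 hrs at 37 C. Compounds were then added for 18 hrs. CCF4 substrate was applied for 2 hrs at room temperature before fluorescence reading.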

[9] = qHTS assay for small molecule agonists of the antioxidant response element (ARE) signaling pathway (AID 651741; active = well fitted activation curve with a large enough effect in the signal ratio; inconclusive = small, poorly fitted or top-dose-only effect, or effect the other way, or a change in a side signal; the % refers to the signal ratio; as to activation: % of control where 0% means no effect); conditions: HepG2 ARE-bla reporter, beta-lactamase FRET ratio, 16 h; activation: at 96 µM (top of the series)
How it was run: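 HepG2 ARE-bla cells plated at 2,000 cells/well and incubated 5 h at 37 C/5% CO2 received 23 nL compound in DMSO. After 16 h at 37 C, LiveBLAzer B/G FRET substrate was applied for 2 h at room temperature and fluorescence read.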

[10] = qHTS assay for small molecule antagonists of the retinoid-related orphan receptor gamma (ROR-gamma) signaling pathway - cell viability counter screen (AID 720652; active = well fitted curve in the direction sought with a large enough effect in the repeat runs; inconclusive = weak or mixed curves; inactive = no such curve, though single readings can be large; an effect the other way counts as inactive or inconclusive;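 also: compound exposure lasted 16 hr before ATP read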); conditions: RORgamma reporter cell line viability counter screen; series mostly up to 92.2 µM
How it was run: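 Counter screen in CHO cells carrying TET-inducible ROR-gamma and an ROR response element-luciferase reporter; cells plated 5 hr, compound pinned, doxycycline added, then 16 hr at 37 C. Viability read as intracellular ATP by CellTiter-Glo luminescence.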

[11] = Cell Viability - H-4-II-E (AID 543); conditions: H-4-II-E rat hepatoma viability; series mostly up to 92.2 µM; also: nearly all actives have a fitted effect of over 35% in size
How it was run: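 Rat hepatoma H-4-II-E cells (1500/well) were plated, incubated 5 hr at 37 °C, then exposed to compounds for 40 hr at 37 °C. Cellular ATP was read by CellTiter-Glo luminescence; AC50 came from Hill-equation fits of concentration-response data.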

[12] = target: Estrogen receptor (Homo sapiens) (UniProt P03372); test: qHTS assay for small molecule agonists of estrogen receptor alpha signaling (AID 588514; calls by dose curve; also: nearly all actives have a fitted effect of over 70% in size); conditions: ER-alpha-UAS-bla HEK293, beta-lactamase ratio, 18 h; activation: at 76.8 µM (top of the series), percent of full estradiol response, vehicle zero unless noted
How it was run: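 ER-alpha-UAS-bla GripTite HEK 293 cells in medium with 2% charcoal/dextran-treated FBS were treated with compound titrations at 37 C for 18 hrs; beta-lactamase reporter read by CCF4 fluorescence after 2 hrs at RT.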

[13] = target: Glucocorticoid receptor (Homo sapiens) (UniProt P04150); test: qHTS assay for small molecule antagonists of glucocorticoid receptor signaling (AID 588533; active = well fitted inhibition curve with a large enough effect in the signal ratio, with a control signal flat, not every such curve was filed as active; inconclusive = small, poorly fitted or top-dose-only effect, or effect the other way, or a change in a side signal; the % refers to the signal ratio;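 also: cells stimulated with 2 nM dexamethasone as agonist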; as to activity change, negative = inhibition: % is scaled to controls: 0 for no effect and ±100 for the full control effect); conditions: HeLa MMTV-bla, GRE beta-lactamase ratio, antagonist mode, 18 h
[14] = target: Peroxisome proliferator-activated receptor gamma (Homo sapiens) (UniProt P37231); test: qHTS assay for small molecule agonists of peroxisome proliferator-activated receptor gamma signaling (AID 588536; active = well fitted curve in the direction sought with a large enough effect in the signal ratio, with a control signal flat, not every such curve was filed as active; inconclusive = small, poorly fitted or top-dose-only effect, or effect the other way, or a change in a side signal; inactive = no such curve, though single readings can be large or run the other way; the % refers to the signal ratio;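 as to activation: 0% = DMSO basal wells and 100% = rosiglitazone at 2 µM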); conditions: HEK293 PPARg-UAS-bla, beta-lactamase ratio, 16 h; activation: at 76.7 µM (top of the series), percent of rosiglitazone response, DMSO as zero
How it was run: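 GeneBLAzer PPAR-gamma-UAS-bla HEK293 cells in 1% charcoal/dextran-treated FBS medium were treated 16 h at 37 C with compounds. Beta-lactamase activity was read by CCF4 ratio (460/530 nm). Response was normalized to 2 uM rosiglitazone (100%) and DMSO, then Hill-fitted for EC50 and efficacy.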

[15] = target: Retinoic acid receptor RXR-alpha (Homo sapiens) (UniProt P19793); test: qHTS assay for small molecule antagonists of retinoid X receptor alpha signaling (AID 588546; active = well fitted inhibition curve with a large enough effect in the signal ratio, with a control signal flat, not every such curve was filed as active; inconclusive = small, poorly fitted or top-dose-only effect, or effect the other way, or a change in a side signal; inactive = no such curve, though single readings can be large or run the other way; the % refers to the signal ratio;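 as to max response: cells stimulated with 9-cis-retinoic acid as agonist; % is scaled to controls: 0 for no effect and ±100 for the full control effect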); conditions: HEK293T RXRa-UAS-bla, beta-lactamase ratio, antagonist mode
How it was run: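 Beta-lactamase reporter inhibition, read as CCF4 fluorescence ratio (ex 405, em 460/530 nm) after 2 h at RT. HEK293T UAS-bla cells, 2500/well, were stimulated with 9-cis-RA at 500 or 100 nM final alongside test compound for 18 h at 37 C.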

[16] = qHTS assay for small molecule agonists of the antioxidant response element (ARE) signaling pathway measured by Nrf2-dependant transcriptional activity (AID 720636; active = well fitted curve in the direction sought with a large enough effect in the repeat runs; inconclusive = weak or mixed curves; inactive = no such curve, though single readings can be large; an effect the other way counts as inactive or inconclusive;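 as to activation: HepG2 cells with an ARE-driven luciferase reporter; % of control where 0% means no effect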); conditions: ARE-luc HepG2, Nrf2 luciferase reporter, 16 h; series mostly up to 92.4 µM
How it was run: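 In HepG2 cells engineered with an Nrf2-responsive luciferase gene, ARE induction was quantified as luminescence after 16 hr compound treatment at 37 C.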

[17] = MultiTox-Fluor Cytotoxicity Assay - LYMP1-001 - Live Cells (AID 947); conditions: LYMP1-001 lymphoblastoid cells, live-cell protease fluorescence viability; series mostly up to 92.2 µM
[18] = target: Thyroid hormone receptor beta (Homo sapiens) (UniProt P10828); test: qHTS assay for small molecule antagonists of thyroid hormone receptor beta signaling (AID 588547; active = well fitted inhibition curve with a large enough effect in the signal ratio, with a control signal flat, not every such curve was filed as active; inconclusive = small, poorly fitted or top-dose-only effect, or effect the other way, or a change in a side signal; the % refers to the signal ratio); conditions: TR-UAS-bla HEK293, beta-lactamase ratio, antagonist mode, 18 h
How it was run: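 TR-UAS-bla GripTite HEK293 cells in 2% charcoal/dextran FBS medium; compounds 0.59 nM to 92 uM with T3 at 0.4nM final, 18 h at 37 C. Beta-lactamase read by CCF4 fluorescence (460/530 nm); Hill fits gave IC50 and efficacy.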

[19] = activity change, negative = inhibition: at 76.8 µM (top of the series)
Potency is read from the fitted curve at half-maximal effect; tags tell the direction and shape of the fitted curve or compound fluorescence and quenching.

Sequence of UniProt P03372 (P03372 whole entry, looked up): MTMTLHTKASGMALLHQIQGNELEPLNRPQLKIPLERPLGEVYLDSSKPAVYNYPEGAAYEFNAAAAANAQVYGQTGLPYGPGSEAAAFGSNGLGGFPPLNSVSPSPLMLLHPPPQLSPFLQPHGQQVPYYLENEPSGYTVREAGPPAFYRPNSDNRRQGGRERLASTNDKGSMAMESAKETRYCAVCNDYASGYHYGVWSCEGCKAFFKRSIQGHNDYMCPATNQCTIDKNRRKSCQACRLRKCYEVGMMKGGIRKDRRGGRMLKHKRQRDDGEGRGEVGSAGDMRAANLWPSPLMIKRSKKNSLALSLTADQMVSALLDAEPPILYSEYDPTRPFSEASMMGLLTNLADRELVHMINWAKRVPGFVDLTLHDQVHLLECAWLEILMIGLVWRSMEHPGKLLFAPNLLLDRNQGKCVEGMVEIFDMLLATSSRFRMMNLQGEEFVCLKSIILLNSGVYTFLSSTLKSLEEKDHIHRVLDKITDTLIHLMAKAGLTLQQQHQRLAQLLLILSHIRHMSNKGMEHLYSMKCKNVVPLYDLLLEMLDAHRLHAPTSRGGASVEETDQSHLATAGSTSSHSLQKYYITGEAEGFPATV
Sequence of UniProt P19793 (P19793 whole entry, looked up): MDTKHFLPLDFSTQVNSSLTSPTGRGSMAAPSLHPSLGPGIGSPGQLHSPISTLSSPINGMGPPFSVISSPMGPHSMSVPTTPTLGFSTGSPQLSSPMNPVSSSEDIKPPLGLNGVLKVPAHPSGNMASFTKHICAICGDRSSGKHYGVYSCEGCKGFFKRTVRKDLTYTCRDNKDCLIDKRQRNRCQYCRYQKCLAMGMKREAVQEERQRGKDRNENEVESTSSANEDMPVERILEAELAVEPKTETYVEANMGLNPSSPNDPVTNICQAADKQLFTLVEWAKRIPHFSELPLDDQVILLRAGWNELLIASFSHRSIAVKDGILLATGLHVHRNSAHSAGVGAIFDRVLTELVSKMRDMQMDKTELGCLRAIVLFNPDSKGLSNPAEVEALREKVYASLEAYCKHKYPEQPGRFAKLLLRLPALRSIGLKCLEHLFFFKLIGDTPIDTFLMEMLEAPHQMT
Sequence of UniProt Q03181 (Q03181 whole entry, looked up): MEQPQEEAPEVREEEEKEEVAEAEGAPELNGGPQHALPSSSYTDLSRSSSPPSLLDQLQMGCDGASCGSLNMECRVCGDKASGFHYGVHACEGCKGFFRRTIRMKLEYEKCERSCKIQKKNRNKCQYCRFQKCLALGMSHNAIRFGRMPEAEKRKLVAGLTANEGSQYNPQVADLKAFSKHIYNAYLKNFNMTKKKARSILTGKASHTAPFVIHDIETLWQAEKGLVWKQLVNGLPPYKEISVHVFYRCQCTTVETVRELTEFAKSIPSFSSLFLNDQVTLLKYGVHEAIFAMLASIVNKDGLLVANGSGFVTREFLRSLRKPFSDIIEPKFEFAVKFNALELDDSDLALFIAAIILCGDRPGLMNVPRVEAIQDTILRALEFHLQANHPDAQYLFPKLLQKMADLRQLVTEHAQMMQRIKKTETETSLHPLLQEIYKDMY
Sequence of UniProt P10828 (P10828 whole entry, looked up): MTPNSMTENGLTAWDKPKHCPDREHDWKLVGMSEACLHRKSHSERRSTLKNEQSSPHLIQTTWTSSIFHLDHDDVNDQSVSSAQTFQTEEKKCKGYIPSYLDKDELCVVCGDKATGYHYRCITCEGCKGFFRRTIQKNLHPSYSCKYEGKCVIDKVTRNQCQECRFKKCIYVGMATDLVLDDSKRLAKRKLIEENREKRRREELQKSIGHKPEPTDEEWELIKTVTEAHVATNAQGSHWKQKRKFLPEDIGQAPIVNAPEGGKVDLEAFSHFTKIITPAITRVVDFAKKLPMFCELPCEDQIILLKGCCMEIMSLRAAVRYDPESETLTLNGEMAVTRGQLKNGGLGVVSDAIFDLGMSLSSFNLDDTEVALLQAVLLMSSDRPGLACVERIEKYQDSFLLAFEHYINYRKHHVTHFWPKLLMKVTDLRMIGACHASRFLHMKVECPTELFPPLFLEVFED

C=CC(=O)OCC
inconclusive: activation [5] 2.36%
inactive: Potency [1] > 92 µM | Potency [2] | Potency [3] | Potency [4]

CCCCCc1cc(O)cc(O)c1
inactive: Potency [5]
active: Potency [9] 42.2 µM
inconclusive: Potency [6] 5.01 µM [falling, partial curve] | Potency [7] 20 µM [cytotoxic, partial curve, poor fit] | Potency [8] 50.1 µM [side channel, rising, single point] | activity, negative = inhibition [3] -30.3% | Potency [10] 75 µM [cytotoxic, partial curve, poor fit]

Oc1c(Br)c(Br)c(Br)c(Br)c1Br
active: Potency [11] 50.1 µM | Potency [2] 39.8 µM [inconclusive] | Potency [13, 19] 39.8 µM
inconclusive: Potency [1] 108 µM [single point] | Potency [12] 22.4 µM [side channel, rising, partial curve, poor fit] | Potency [8] 44.7 µM [fluorescent, side channel] | activation [14] -11.2% | Potency [3] 39.8 µM [side channel, rising, partial curve] | activation [4] -25.5% | max response [15] -36.5% | activation [9] -3.95% | Potency [5] 75 µM [activator, single point]

CCN(CC)c1ccccc1
inconclusive: activity, negative = inhibition [3] 10.4% | activation [5] 15.7%
inactive: Potency [4] | Potency [9] | Potency [16]

Clc1ccc2ccccc2c1
inconclusive: max response [15] -9.46% | activation [5] -8.54%
inactive: Potency [1] > 92 µM | Potency [4] | Potency [9]

C/C=C/CC#N
inconclusive: activity, negative = inhibition [3] -29.5% | Potency [9] 37.6 µM [activator, partial curve, poor fit]
inactive: Potency [1] > 92 µM | Potency [8] | Potency [4] | max response [15] 13.1% | Potency [5] | Potency [16]

CN(C)c1ccc(N=O)cc1
inconclusive: Potency [8] 25.1 µM [side channel, rising, full curve] | Potency [14] 25.1 µM [side channel, falling, partial curve, poor fit] | Potency [3] 50.1 µM [side channel, rising, partial curve, poor fit] | Potency [4] 11.2 µM [side channel, rising, full curve, poor fit] | Potency [15] 35.5 µM [side channel, partial curve, poor fit] | Potency [18] 0.0007 µM [side channel, rising, full curve, poor fit] | Potency [5] 75 µM [inhibitor, single point] | Potency [10] 7.5 µM [cytotoxic, full curve, poor fit]
active: Potency [17] 10 µM | Potency [6] 3.16 µM | Potency [7] 0.794 µM | Potency [2] 22.4 µM [inconclusive] | Potency [16] 26.6 µM

CCCCCCCCn1sccc1=O
inactive: activity change, negative = inhibition ([13]; at 76.8 µM (top of the series)) -28.2%
inconclusive: activity change, negative = inhibition [13, 19] -4.69% | activation [14] -24.8% | Potency [5] 84.1 µM [falling, single point] | Potency [16] 16.8 µM [activator, full curve, poor fit] and 10.9 µM [activator, full curve, poor fit] | Potency [10] 8.41 µM [cytotoxic, full curve, poor fit]
active: Potency [17] 31.6 µM | Potency [6] 5.01 µM | Potency [7] 3.98 µM | Potency [2] 14.1 µM [inconclusive] | Potency [9] 66.8 µM and 54.5 µM

OCC(Cl)CCl (stereo not given)
inconclusive: Potency [9] 75 µM [activator, single point]
inactive: Potency [1] > 92 µM | Potency [14] | Potency [3] | Potency [5]

COC1=CC(=O)OC(CCc2ccc3c(c2)OCO3)C1 (stereo not given)
inconclusive: Potency [11] 50.1 µM [falling, partial curve] | Potency [12] 20 µM [side channel, rising, partial curve, poor fit] | activity change, negative = inhibition [13, 19] 12.8% | activity change, negative = inhibition [8] 5.29% | Potency [4] 11.2 µM [side channel, rising, full curve] | max response [15] -11.1%
inactive: Potency [17] | Potency [9] | Potency [5]
